Reference: PubChem BioAssay AID504339 (National Center for Advancing Translational Sciences (NCATS), 2011)
Hit rate of the full screen: of about 390,000 compounds, about 17,000 (4.4%) were called active. The shares of active, inactive and inconclusive entries below differ from those in the screen. The call rests on the fitted dose curve; in most records, active means well fitted inhibition curve with a large enough effect; inconclusive means small, poorly fitted or top-dose-only effect; inactive means no such curve, though single readings can be large or run the other way. Potencies beside an inconclusive call are fits to weak or partial responses and may not hold up.

Molecular target: Lysine-specific demethylase 4A (Homo sapiens) (UniProt O75164)
Test: qHTS Assay for Inhibitors of JMJD2A-Tudor Domain; further: nearly all actives have a fitted effect of over 50% in size
Settings: AlphaScreen JMJD2A-Tudor / H3K4me3 peptide binding; series mostly up to 114 µM
Potency means the concentration at half of the fitted maximal effect; tags describe the fitted curve by direction and shape.

Sequence of UniProt O75164 (O75164 whole entry, looked up, the tested form may be a part): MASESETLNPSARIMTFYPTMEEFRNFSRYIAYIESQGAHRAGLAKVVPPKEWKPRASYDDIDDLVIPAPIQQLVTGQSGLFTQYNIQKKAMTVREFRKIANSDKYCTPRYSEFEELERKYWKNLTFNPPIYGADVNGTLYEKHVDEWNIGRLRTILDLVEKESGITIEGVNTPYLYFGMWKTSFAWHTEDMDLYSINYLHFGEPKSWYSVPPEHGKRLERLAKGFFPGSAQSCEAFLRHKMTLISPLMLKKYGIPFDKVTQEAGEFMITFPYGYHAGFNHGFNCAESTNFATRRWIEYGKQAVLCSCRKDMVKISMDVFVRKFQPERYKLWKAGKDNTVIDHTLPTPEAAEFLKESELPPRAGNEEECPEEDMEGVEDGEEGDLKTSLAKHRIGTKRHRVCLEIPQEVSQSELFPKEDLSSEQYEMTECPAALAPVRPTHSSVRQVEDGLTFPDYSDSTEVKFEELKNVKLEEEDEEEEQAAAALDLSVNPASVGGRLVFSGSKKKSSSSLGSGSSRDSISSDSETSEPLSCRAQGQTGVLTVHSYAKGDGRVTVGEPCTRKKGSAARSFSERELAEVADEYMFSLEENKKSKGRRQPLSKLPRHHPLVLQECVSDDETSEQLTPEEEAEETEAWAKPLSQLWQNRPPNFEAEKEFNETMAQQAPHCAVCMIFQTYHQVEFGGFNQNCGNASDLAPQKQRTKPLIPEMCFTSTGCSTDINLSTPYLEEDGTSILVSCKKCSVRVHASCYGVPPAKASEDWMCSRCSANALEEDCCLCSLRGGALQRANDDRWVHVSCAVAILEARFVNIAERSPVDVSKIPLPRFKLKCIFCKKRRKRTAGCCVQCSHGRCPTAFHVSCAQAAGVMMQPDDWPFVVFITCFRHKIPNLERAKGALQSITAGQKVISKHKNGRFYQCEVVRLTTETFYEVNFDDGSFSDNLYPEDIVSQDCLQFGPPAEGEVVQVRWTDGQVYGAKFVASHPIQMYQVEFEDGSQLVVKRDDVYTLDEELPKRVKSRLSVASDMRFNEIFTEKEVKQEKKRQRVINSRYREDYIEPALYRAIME

Row | Structure (SMILES) | Potency
1 | Cc1cc(C)cc(Nc2ccc3nonc3c2[N+](=O)[O-])c1 | inconclusive: 39.8 µM [inhibitor, single point]
2 | CCC(C)Nc1nc(N)c([N+](=O)[O-])c(Nc2cc(OC)ccc2OC)n1 (centres undefined) | active: 39.8 µM
3 | COc1ccc(Nc2nc(C(=O)N3CCc4ccccc4C3)cs2)cc1 | active: 44.7 µM
4 | CN1c2ccccc2C2(C)CCCC3=Cc4cc([N+](=O)[O-])cc([N+](=O)[O-])c4OC312 (centres undefined) | inconclusive: 44.7 µM [inhibitor, partial curve]
5 | O=C(Nc1ccc(N2CCCC2)cc1)c1cccc(-c2cc3ccccc3oc2=O)c1 | active: 28.2 µM
6 | O=c1c2c3nc4ccccc4nc3n(-c3ccc4c(c3)OCCO4)c2ncn1C1CCCC1 | active: 79.4 µM
7 | CC(=O)n1cc(/C=N/NC(=O)c2ccc([N+](=O)[O-])cc2)c2ccccc21 | inactive
8 | CC(C)c1ccc(/C=C2\SC(=S)N(CCC(=O)NCCCn3ccnc3)C2=O)cc1 | inconclusive: 12.6 µM [inhibitor, full curve]
9 | CCCOc1ccc(C2=NNC(c3cccs3)=Nc3ccc(OC)cc32)cc1 | inconclusive: 63.1 µM [inhibitor, partial curve, poor fit]
10 | COc1cccc(N2C(=NC(=O)c3ccccc3)SC3CS(=O)(=O)CC32)c1 (centres undefined) | inactive
11 | COc1ccc(CCNC(=O)CCn2c(=O)c3ccccc3n(Cc3ccccc3F)c2=O)cc1OC | inactive
12 | Cc1ccc(NC2=C/C(=N\S(=O)(=O)c3cccs3)c3ccccc3C2=O)c(C)c1 | active: 4.47 µM
13 | O=C(CN1CCCC1)NC(c1ccccc1)c1ccccc1 | active: 1.41 µM
14 | O=C(Cn1c2ccccc2c(=O)c2cc([N+](=O)[O-])ccc21)Nc1ccccc1Cl | inconclusive: 50.1 µM [inhibitor, partial curve]
15 | O=C(Nn1c(SCc2cccc([N+](=O)[O-])c2)nc2ccccc2c1=O)c1ccccc1 | inconclusive: 44.7 µM [inhibitor, partial curve]
16 | Cc1cccc(C(=O)OCc2cc(=O)n3ccsc3n2)c1 | inactive
17 | CC(=O)C1=C(O)C(=O)N(CCCn2ccnc2)C1c1ccc(C)cc1 (centres undefined) | inactive
18 | N#C/C(=N\Nc1ccc(Cl)cc1)C(=N)N1CCCCC1 | inconclusive: 56.2 µM [inhibitor, partial curve]
19 | CCn1c(CCCOc2ccc(Cl)cc2Cl)n[nH]c1=S | inactive
20 | CCOC(=O)N1CCN(C(=O)c2ccc3c(=O)n(-c4ccccc4F)c(=S)[nH]c3c2)CC1 | inactive
21 | O=C(/C=C/c1cccc([N+](=O)[O-])c1)Nc1cccc(NC(=O)c2ccco2)c1 | inconclusive: 56.2 µM [inhibitor, partial curve]
22 | COc1cccc(-n2ccnc2SCC(=O)Nc2c(C)cc(C)cc2C)c1 | inconclusive: 56.2 µM [inhibitor, partial curve]
23 | CCOCCCNC(=O)c1ccc(-n2c(-c3ccccc3)cc3c2CCCC3)cc1 | inconclusive: 12.6 µM [inhibitor, full curve, poor fit]

Row | Structure (SMILES) | Potency
24 | O=C(O)c1cccc(-c2ccc(/C=N/NC(=O)c3cccnc3)o2)c1 | inconclusive: 63.1 µM [inhibitor, partial curve]
25 | CC(=O)NC(C)CCc1ccccc1 (centres undefined) | inactive
26 | O=C1CC[C@@H]2C[C@@]3(C[C@@H]4CCN1[C@H]24)Nc1cc([N+](=O)[O-])ccc1NC3=NCc1ccccc1 | inconclusive: 56.2 µM [inhibitor, partial curve, poor fit]
27 | C/C=C/c1ccc(OCC(=O)O)c(OC)c1 | inactive
28 | O=C(NCc1n[nH]c(=S)n1-c1ccc(Br)cc1)c1cccs1 | active: 25.1 µM
29 | O=S(=O)(NCCNc1nc(-c2ccco2)nc2ccccc12)c1ccccc1 | inconclusive: 100 µM [inhibitor, single point]
30 | O=C(NCCN1CCOCC1)c1c(O)nc2sccn2c1=O | active: 31.6 µM
31 | Cc1ccc(-n2c(C)cc(-c3csc(N)n3)c2C)cc1 | active: 39.8 µM
32 | CCC1Nc2ncnc(N3CCN(c4ccccc4)CC3)c2N(Cc2ccc(Cl)cc2)C1=O (centres undefined) | inconclusive: 15.8 µM [inhibitor, full curve]
33 | Cc1ccccc1S(=O)(=O)Cc1ccc(C(=O)N2CCN(c3ncccn3)CC2)o1 | inactive
34 | COc1ccc(-n2nc(C(=O)NCC(=O)NCc3ccc(F)cc3)c3ccccc3c2=O)cc1OC | inactive
35 | CC(C)(C)Cc1nnc(NC(=O)CSc2ccccc2)s1 | active: 56.2 µM
36 | CN(CCOc1ccccc1)C(=O)CCc1c[nH]c2ccccc12 | inconclusive: 50.1 µM [inhibitor, partial curve]
37 | Cc1ccc(S(=O)(=O)N2CCCCC2)cc1NC(=O)Cc1c[nH]c2ccccc12 | inconclusive: 56.2 µM [inhibitor, partial curve]
38 | Cc1[nH]n(S(=O)(=O)Cc2ccccc2)c(=O)c1N=Nc1ccccc1Cl | inconclusive: 44.7 µM [inhibitor, partial curve]
39 | CS(=O)(=O)N(CC(=O)NCc1ccco1)c1ccc(OCc2ccccc2)cc1 | inconclusive: 50.1 µM [inhibitor, partial curve]
40 | CC(O)CNc1nc2sc3c(c2c(=O)n1CCc1ccccc1)CCCCC3 (centres undefined) | inconclusive: 56.2 µM [inhibitor, partial curve]
41 | Cn1c(NN)nc2sc3c(c2c1=O)CC(C)(C)OC3 | inconclusive: 100 µM [inhibitor, single point]
42 | CCCCN1C(=O)c2ccc(C(=O)N(C)CC(=O)Nc3ccc(OCC)c(OCC)c3)cc2C1=O | inconclusive: 63.1 µM [inhibitor, partial curve]
43 | CN(C)c1ccc(/C=N/NC(=O)c2nnn(-c3nonc3N)c2CN2CCCCCC2)cc1 | inconclusive: 89.1 µM [inhibitor, partial curve]
44 | CC(=O)N1c2ccccc2CC1C(=O)N1CCN(c2ccccc2)CC1 (centres undefined) | inconclusive: 89.1 µM [inhibitor, single point]
45 | CN(c1ccc(-c2csc(NC(=O)C3CC(=O)N(Cc4ccco4)C3)n2)cc1)S(C)(=O)=O (centres undefined) | inconclusive: 56.2 µM [inhibitor, partial curve]
46 | COCCn1c(C)cc(C(=O)CSc2nc3ccccc3c(=O)n2C(C)COC)c1C (centres undefined) | inconclusive: 56.2 µM [inhibitor, partial curve]

Row | Structure (SMILES) | Potency
47 | COc1ccc(-c2nnc(SCC(=O)c3ccco3)n2-c2ccccc2)cc1 | active: 56.2 µM
48 | CC1(C)CC(=O)C(N=Nc2ccc(S(=O)(=O)N3CCOCC3)cc2)=C(O)C1 | active: 35.5 µM
49 | O=C(CCNC(=O)Cn1cnc2ccccc2c1=O)NCC1COc2ccccc2O1 (centres undefined) | inconclusive: 3.55 µM [inhibitor, single point]
50 | Cc1ccc(O)c(NS(=O)(=O)c2cccc3nsnc23)c1 | inconclusive: 56.2 µM [inhibitor, partial curve]
51 | CCOC(=O)CSc1nnc(Cc2cc(=O)[nH]c(=O)[nH]2)n1-c1ccc(Cl)cc1 | inconclusive: 44.7 µM [inhibitor, partial curve]
52 | COc1cccc(NC(=S)N/N=C2\CC3CCC2(C)C3(C)C)c1 (centres undefined) | inconclusive: 79.4 µM [inhibitor, partial curve]
53 | COc1ccc(-c2sc3cc4c(cc3c2-c2ccc(OCCN3CCCCC3)cc2)OCO4)cc1 | inconclusive: 10 µM [inhibitor, full curve]
54 | NS(=O)(=O)c1ccc(CNC(=O)/C=C/c2ccco2)cc1 | inconclusive: 79.4 µM [inhibitor, single point]
55 | NCCC(=O)NCCc1cnc[nH]1 | inconclusive: 89.1 µM [inhibitor, partial curve]
56 | COc1ccc2nc(SC(C)C(=O)NC3CCCC3)[nH]c2c1 (centres undefined) | inactive
57 | O=S(=O)([N-]c1nc2ccccc2nc1-[n+]1ccc(Cc2ccccc2)cc1)c1ccc(Br)s1 | inconclusive: 44.7 µM [inhibitor, partial curve]
58 | Cc1ccc2nc(N(CCCN(C)C)C(=O)c3ccc(S(=O)(=O)N4CCCCCC4)cc3)sc2c1 | inconclusive: 39.8 µM [inhibitor, partial curve]
59 | Cc1oc(-c2ccccc2)nc1C(=O)Nc1nccs1 | inconclusive: 89.1 µM [inhibitor, partial curve]
60 | CCc1cccc(NC(=O)CCc2nc3cccnc3n2Cc2ccc(OC)cc2)c1 | inactive
61 | CCOC(=O)Cc1ccc(NC(=O)Nc2c[nH]c(=O)[nH]c2=O)cc1 | inactive
62 | c1ccc2c(c1)oc1c(Nc3ccc(CN4CCOCC4)cc3)ncnc12 | inconclusive: 79.4 µM [inhibitor, single point]
63 | CN(C)c1ccc(/C=C/c2nc(-c3ccccc3O)n(-c3ccccc3)n2)cc1 | inconclusive: 22.4 µM [inhibitor, full curve]
64 | O=C(NC1CC1)c1ccc2nc(-c3ccco3)c(-c3ccco3)nc2c1 | active: 20 µM
65 | CC(C)CCNC(=O)CN1C(=O)CSc2ccc(S(=O)(=O)N3CCC(C)CC3)cc21 | inactive
66 | COc1ccc(CCNc2oc(Cc3ccccc3)nc2C#N)cc1OC | inconclusive: 31.6 µM [inhibitor, full curve]
67 | Cc1cc2cccc(C)c2nc1SCC(=O)NNC(=O)c1ccco1 | inconclusive: 89.1 µM [inhibitor, single point]
68 | C#CCOCCOCCOCCNc1nc(N2CCN(C(=O)[C@H](CCCCN)n3cc(CCCC)nn3)CC2)nc(N2CCN(C(=O)[C@H](Cc3ccc(O)cc3)n3cc(CCO)nn3)CC2)n1 | active: 79.4 µM
69 | Nc1c(S(=O)(=O)O)cc(NC(=O)c2ccccc2)c2c1C(=O)c1ccccc1C2=O | active: 2.51 µM
